The source of these data is paper PMC3500392 (ACS chemical biology, 2012).

A word on the Km: it is the substrate concentration at which the rate is half of its maximum.

Structures can show the parent of a compound that is named as a salt. Where two headings read alike, the source gives them in different places.

Data set [1] deals with T1, GRK2 (Homo sapiens, UniProt P25098, S670A).
T1 sequence (P25098 1-689 S670A): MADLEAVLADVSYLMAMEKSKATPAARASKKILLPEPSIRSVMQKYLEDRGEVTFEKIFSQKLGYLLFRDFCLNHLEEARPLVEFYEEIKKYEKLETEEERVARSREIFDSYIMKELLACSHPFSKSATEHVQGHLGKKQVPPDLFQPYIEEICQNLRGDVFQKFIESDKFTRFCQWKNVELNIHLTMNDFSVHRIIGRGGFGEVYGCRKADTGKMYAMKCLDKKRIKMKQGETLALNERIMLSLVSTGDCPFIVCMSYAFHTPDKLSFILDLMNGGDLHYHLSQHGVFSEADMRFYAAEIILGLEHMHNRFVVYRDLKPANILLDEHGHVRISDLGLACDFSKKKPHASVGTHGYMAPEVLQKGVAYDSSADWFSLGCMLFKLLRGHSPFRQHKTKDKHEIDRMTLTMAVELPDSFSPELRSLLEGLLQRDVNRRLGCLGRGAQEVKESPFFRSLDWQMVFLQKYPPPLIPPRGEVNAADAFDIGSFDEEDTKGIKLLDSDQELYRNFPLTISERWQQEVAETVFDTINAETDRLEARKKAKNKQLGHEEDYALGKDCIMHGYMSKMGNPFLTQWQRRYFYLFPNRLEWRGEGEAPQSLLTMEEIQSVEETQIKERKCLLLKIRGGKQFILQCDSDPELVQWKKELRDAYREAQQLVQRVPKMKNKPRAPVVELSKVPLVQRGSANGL
It is filed as binding. The following applies: for nH (Hill slope), competition (2 nM C13.28-FAM) / pIC50, competition (2 nM C13.28-FAM): flow cytometry bead binding; for pIC50, competition (2 nM C13.28-FAM): bGRK2. (In general: Flow cytometry measures light scatter and fluorescence of single cells or particles in a stream.)

Data set [2] concerns the target T1, GRK2. Description: Thermofluor thermal stability assay, GRK2. The settings on record: 200 μM ligand. On the technique in general: DSF heats the sample and reads unfolding from a dye or from intrinsic fluorescence.
Data set [3] concerns the target T1, GRK2. The experiment in a line: GRK2 mediated phosphorylation of light-activated bovine rod outer segments. It is filed as biochemical.
Data set [4] deals with GRK2. The settings on record: cited from earlier work.
In the next data set the target is GRK5 (Bos taurus, UniProt P43249). The experiment in a line: Thermofluor thermal stability assay, GRK5. The settings on record: 200 μM ligand. The data set is classed as binding, bovine.
A further data set has as its target T2, GRK1 (Bos taurus, UniProt P28327).
T2 sequence (P28327 1-535): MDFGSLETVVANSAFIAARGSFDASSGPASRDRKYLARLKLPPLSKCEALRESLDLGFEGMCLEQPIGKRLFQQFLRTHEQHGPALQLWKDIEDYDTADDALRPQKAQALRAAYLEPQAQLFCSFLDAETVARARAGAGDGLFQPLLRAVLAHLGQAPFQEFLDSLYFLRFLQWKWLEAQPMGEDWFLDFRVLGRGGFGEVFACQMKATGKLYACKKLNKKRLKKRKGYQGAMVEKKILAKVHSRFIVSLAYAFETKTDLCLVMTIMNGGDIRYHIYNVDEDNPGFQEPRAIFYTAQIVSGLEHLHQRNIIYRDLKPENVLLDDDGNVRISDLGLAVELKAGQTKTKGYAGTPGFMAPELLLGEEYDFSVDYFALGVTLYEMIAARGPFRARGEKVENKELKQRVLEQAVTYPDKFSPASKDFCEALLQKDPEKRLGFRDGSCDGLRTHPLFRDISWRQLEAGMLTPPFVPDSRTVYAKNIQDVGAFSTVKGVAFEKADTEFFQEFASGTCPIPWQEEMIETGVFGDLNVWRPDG
The experiment in a line: Thermofluor thermal stability assay, GRK1. The data set is classed as binding, bovine. The following applies: 200 μM ligand.

Data set [5] has as its target T1, GRK2. The following applies: Thermofluor, 10 μM, previously determined; cited from earlier work.
The subject of data set [6] is cardiac contractility in C57/B6 mice. The experiment in a line: In vivo hemodynamic measurements. The following applies: for βAR-mediated (isoproterenol) in vivo cardiac contractility response: 10 mg kg^−1, 1 h before catheterization. Set-up: species or system mouse.
The subject of data set [7] is adult mouse ventricular myocyte contractility. The experiment in a line: Myocyte shortening measurements. The settings on record: for effect on isoproterenol-induced cardiomyocyte contractility: compared to isoproterenol alone.
The conditions of data set [8]: cited from earlier work.
[9] abbreviates: baseline before isoproterenol, 10 μM, 10 min.

Take 4-hydroxy-quinone monohydrate [P-835]: on GRK2 [1], the “nH (Hill slope), competition (2 nM C13.28-FAM)” value is on record as −1.6 and the “pIC50, competition (2 nM C13.28-FAM)” value is 5.5 ± 0.4. The “ΔTm GRK2” value at GRK2 [2] came out at 1.2 ± 0.8 °C. In addition, the “inhibition of GRK2 mediated phosphorylation of ROS” value against GRK2 [3] is reported as “no effect on inhibiting GRK2 kinase activity”.

In the case of `Nc1ncnc2c1ncn2[C@@H]1O[C@H](COP(=O)(O)OP(=O)(O)OP(=O)(O)O)[C@@H](O)[C@H]1O` [ATP], the “fraction of aptamer competed off (maximal inhibition of aptamer binding)” value on GRK2 [1] (2 nM C13.28-FAM) was 40–70%. In addition, at GRK2 [1], the “nH (Hill slope), competition (2 nM C13.28-FAM)” value is −0.7 and the “pIC50, competition (2 nM C13.28-FAM)” value is on record as 4.3 ± 0.3. Besides, the “ΔTm GRK2” value on GRK2 [2] was 4.9 ± 1.6 °C. In the data set on GRK2 [4], the Km is 28 µM. At GRK5, the “ΔTm GRK5” value amounted to 7.2 ± 1.1 °C. Besides, the “ΔTm GRK1” value on GRK1 amounted to 18.0 ± 1.5 °C.

Consider `O=C(N[C@@H]1CNCCC[C@H]1OC(=O)c1cc(O)c(C(=O)c2c(O)cccc2C(=O)O)c(O)c1)c1ccc(O)cc1` [balanol], for which the “ΔTm GRK2” value at GRK2 [5] was 12–19 °C. For the same molecule, the “inhibition of GRK2 (potency in words)” value in the data set with GRK2 [4] (balanol ref 17, 18, C13 ref 24) is recorded as “low nanomolar range”.

With `CNCCC(Oc1ccc(C(F)(F)F)cc1)c1ccccc1` (centres unmarked) [fluoxetine], the “βAR-mediated (isoproterenol) in vivo cardiac contractility response” value in data set [6] is reported as “no effect on in vivo βAR-mediated cardiac contractility”. Besides, in data set [7], the “effect on isoproterenol-induced cardiomyocyte contractility” value is recorded as “negligible effects”. The “inhibition of GRK2 mediated phosphorylation of ROS” value against GRK2 [3] is “did not inhibit ROS phosphorylation by GRK2”.

Turning to `Fc1ccc([C@@H]2CCNC[C@H]2COc2ccc3c(c2)OCO3)cc1` [paroxetine, paroxetine hydrochloride], in data set [6] (10 mg kg^−1), the heart rate entry is recorded as “no significant change in heart rate” and the “left ventricular (LV) dP/dt at baseline” value is “small immediate increase”. For the same molecule, the “βAR-mediated (isoproterenol) in vivo cardiac contractility response” value in data set [6] is reported as “significant increased response to isoproterenol”. Further, in data set [8] (healthy male adults), the “Steady state blood plasma level” value is recorded as 125 nM. Besides, the “fraction of drug remaining in the plasma” value in data set [8] (human, in vivo) is given as 1%. In data set [7] (10 μM, 10 min), the “effect on baseline myocyte functional parameters or shape” value was “did not alter baseline myocyte functional parameters or shape”. The Max. contraction amplitude in data set [7] (after isoproterenol (0.2 μM, 2 min), 10 μM, 10 min pretreatment) turned out to be 15.8 ± 1.3 % cell length. Moreover, the “% increase in contraction amplitude” value in data set [7] (after isoproterenol, 10 μM, 10 min pretreatment) was 260.2 ± 19.0%. In data set [7] (setting [9]), this molecule yielded a Half-time of relaxation of 65.9 ± 7.3 ms, a Max. relengthening velocity of 0.58 ± 0.08 μm s^−1 and a Max. shortening velocity of −0.77 ± 0.09 μm s^−1. Besides, the Max. contraction amplitude in [7] (baseline before isoproterenol, 10 μM, 10 min pretreatment) came to 4.5 ± 0.4 % cell length. Also, the “effect on isoproterenol-induced cardiomyocyte contractility” value in [7] is reported as “significantly potentiated the isoproterenol effects on contractility”.
